Article PMC4624786
Results are given in words; binding and its absence hold for the method and conditions named. In cells and extracts the contact can be indirect. Some binding calls cover weakened binding; strength is not graded here. Where a sequence is shown, tags or fusion partners need not be part of it.

Target: T1, N-terminal cytoplasmic domain of NBCe1-B (residues 1–468) fused to maltose-binding protein (UniProt Q9Y6R1)
T1 sequence: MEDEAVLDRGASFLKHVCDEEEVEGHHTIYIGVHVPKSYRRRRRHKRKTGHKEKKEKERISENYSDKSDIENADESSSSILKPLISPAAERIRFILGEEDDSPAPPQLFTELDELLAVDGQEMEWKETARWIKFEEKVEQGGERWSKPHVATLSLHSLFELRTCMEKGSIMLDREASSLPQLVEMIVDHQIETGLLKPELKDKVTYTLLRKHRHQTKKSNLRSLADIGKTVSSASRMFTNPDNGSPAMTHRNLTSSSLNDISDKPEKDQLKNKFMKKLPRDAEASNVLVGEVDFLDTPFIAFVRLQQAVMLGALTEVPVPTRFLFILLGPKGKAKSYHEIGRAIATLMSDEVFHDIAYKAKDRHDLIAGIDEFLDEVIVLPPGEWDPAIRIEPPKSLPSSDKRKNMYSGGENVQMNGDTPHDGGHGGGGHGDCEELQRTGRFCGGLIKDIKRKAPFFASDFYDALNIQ
Experiment: pull-down; COS-7 cell lysates (myc-PIPKIα or myc-PIPKIIα with or without HA-IRBIT) incubated with 5 μg MBP fusion protein for 1 hr at 4°C, amylose resin, washed with lysis buffer, eluted with 100 mM maltose; Western blot; only the target purified

binding: binds
B1: myc-tagged phosphatidylinositol phosphate kinase type IIα (enzyme, UniProt Q9R0I8 1-406)
chain: MATPSNLGSSVLASKTKTKKKHFVAQKVKLFRASDPLLSVLMWGVNHSINELSHVQIPVMLMPDDFKAYSKIKVDNHLFNKENMPSHFKFKEYCPMVFRNLRERFGIDDQDFQNSLTRSAPLPNDSQARSGARFHTSYDKRYVIKTITSEDVAEMHNILKKYHQYIVECHGVTLLPQFLGMYRLNVDGVEIYVIVTRNVFSHRLSVYRKYDLKGSTVAREASDKEKAKELPTLKDNDFINEGQKIYIDDSNKKIFLEKLKKDVEFLAQLKLMDYSLLVGIHDVERAEQEEVECEENEGEEEGESDGAHPIGTPPDSPGNTLNSSPPLAPGEFDPNIDVYAIKCHENAPRKEVYFMAIIDILTHYDAKKKAAHAAKTVKHGAGAEISTVNPEQYSKRFLDFIGHILT
